The supplement of paper PMC11171410
Structures can show the parent of a compound that is named as a salt. Many values rest on one well or one pass, so single values are uncertain.

Tests used:
SUDHL6 parental = experiment: estimated IC50 (cell viability); higher = less potent
[1] = system: SUDHL6 venetoclax-resistant; experiment: as above
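Note: compound screen comparing venetoclax-resistant SUDHL6, derived by months of escalating venetoclax exposure, with its matched parental line, IC50 from one-site nonlinear dose–response fit, geometric mean for duplicated compounds.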

SMILES: O=C(Nc1ccccc1-c1cn2c(CN3CC[C@@H](O)C3)csc2n1)c1ccc2ccccc2c1 [SRT2183]
- estimated IC50 (SUDHL6 parental): 7.12 µM
- estimated IC50 [1]: 3.66 µM

SMILES: Cc1nn(-c2ccnc(Nc3ccc(-c4csc5c(=O)cc(N6CCOCC6)oc45)cc3)n2)cc1CN1CCC1 [SRX3207]
- estimated IC50 (SUDHL6 parental): 8.84 µM
- estimated IC50 [1]: 4.64 µM

SMILES: CC(C)(C)c1ccc(S(=O)(=O)NCc2ccc(C(=O)Nc3cccnc3)cc2)cc1 [STF-31]
- estimated IC50 (SUDHL6 parental): 0.42 µM
- estimated IC50 [1]: 0.16 µM

SMILES: Cc1cc2c(C(=O)NC[C@H](C)c3ccccc3)c(O)c(O)cc2c(O)c1-c1c(C)cc2c(C(=O)NC[C@H](C)c3ccccc3)c(O)c(O)cc2c1O [Sabutoclax]
- estimated IC50 (SUDHL6 parental): 2.55 µM
- estimated IC50 [1]: 0.55 µM

SMILES: C[n+]1cc2c3c(ccc2c2ccc4cc5c(cc4c21)OCO5)OCO3 [Sanguinarine chloride]
- estimated IC50 (SUDHL6 parental): 3.69 µM
- estimated IC50 [1]: 2.28 µM

SMILES: CC(C)n1nc(-c2ccc3oc(N)nc3c2)c2c(N)ncnc21 [Sapanisertib (INK 128, MLN0128)]
- estimated IC50 (SUDHL6 parental): 0.24 µM
- estimated IC50 [1]: 0.08 µM

SMILES: CN1CCN(CCOc2cc(OC3CCOCC3)c3c(Nc4c(Cl)ccc5c4OCO5)ncnc3c2)CC1 [Saracatinib (AZD0530)]
- estimated IC50 (SUDHL6 parental): 8.15 µM
- estimated IC50 [1]: 5.42 µM

SMILES: CNC(=O)c1cc(Oc2ccc(NC(=O)Nc3ccc(Cl)c(C(F)(F)F)c3)cc2)ccn1 [Sorafenib]
- estimated IC50 (SUDHL6 parental): 8.2 µM
- estimated IC50 [1]: 2.5 µM

SMILES: Fc1ccc(CNc2ncnc3ccc(F)cc23)cc1 [Spautin-1]
- estimated IC50 (SUDHL6 parental): 7.64 µM
- estimated IC50 [1]: 3.87 µM

SMILES: CC(C)n1cnc2c(NCCc3ccc(O)cc3)nc(-c3csc4ccccc34)nc21 [StemRegenin 1]
- estimated IC50 (SUDHL6 parental): 3.71 µM
- estimated IC50 [1]: 2.14 µM

SMILES: N#Cc1c(Oc2ccc(F)c(NC(=O)Cc3cccc(C(F)(F)F)c3)c2)ccc2nc(NC(=O)C3CC3)sc12 [TAK-632]
- estimated IC50 (SUDHL6 parental): 1.6 µM
- estimated IC50 [1]: 1 µM

SMILES: N=C1CCCN1Cc1[nH]c(=O)[nH]c(=O)c1Cl.O=c1[nH]c(=O)n([C@H]2C[C@H](O)[C@@H](CO)O2)cc1C(F)(F)F [TAS-102]
- estimated IC50 (SUDHL6 parental): > 10 µM
- estimated IC50 [1]: 1.97 µM

SMILES: O=C(Cn1cc(S(=O)(=O)N2CCCC2)ccc1=O)c1ccc(-c2cccc(C(F)(F)F)c2)cc1 [TBOPP]
- estimated IC50 (SUDHL6 parental): > 10 µM
- estimated IC50 [1]: 5.01 µM

SMILES: Cc1cc(C(C)Nc2ccccc2)c2nc(N3CCOCC3)cc(=O)n2c1 (centres undefined) [TGX-221]
- estimated IC50 (SUDHL6 parental): > 10 µM
- estimated IC50 [1]: 6.31 µM

SMILES: CN(C)C/C=C/C(=O)Nc1ccc(C(=O)N2CCC[C@@H](Nc3ncc(Cl)c(-c4c[nH]c5ccccc45)n3)C2)cc1 [THZ531]
- estimated IC50 (SUDHL6 parental): 0.54 µM
- estimated IC50 [1]: 0.31 µM

SMILES: C[C@H]1CNC(=O)c2cnn3ccc(nc23)N[C@H](C)c2cc(F)ccc2O1 [TPX-0005]
- estimated IC50 (SUDHL6 parental): 6.17 µM
- estimated IC50 [1]: 3.19 µM

SMILES: Nc1cccc(-c2cc3c(Oc4cccc(O)c4)ncnc3[nH]2)c1 [TWS119]
- estimated IC50 (SUDHL6 parental): 8.5 µM
- estimated IC50 [1]: 4.6 µM

SMILES: C=CCNC1=C2C[C@@H](C)C[C@H](OC)[C@H](O)[C@@H](C)/C=C(\C)[C@H](OC(N)=O)[C@@H](OC)/C=C\C=C(/C)C(=O)NC(=CC1=O)C2=O [Tanespimycin (17-AAG)]
- estimated IC50 (SUDHL6 parental): 5.29 µM
- estimated IC50 [1]: 2.93 µM

SMILES: COc1cc([C@@H]2c3cc4c(cc3[C@@H](O[C@@H]3O[C@@H]5CO[C@@H](c6cccs6)O[C@H]5[C@H](O)[C@H]3O)[C@H]3COC(=O)[C@H]23)OCO4)cc(OC)c1O [Teniposide]
- estimated IC50 (SUDHL6 parental): 1.89 µM
- estimated IC50 [1]: 0.86 µM

SMILES: Cn1cncc1[C@@](N)(c1ccc(Cl)cc1)c1ccc2c(c1)c(-c1cccc(Cl)c1)cc(=O)n2C [Tipifarnib]
- estimated IC50 (SUDHL6 parental): 8.89 µM
- estimated IC50 [1]: 4.06 µM

SMILES: O=C1NC(=O)[C@@H](c2cn3c4c(cccc24)CCC3)[C@@H]1c1c[nH]c2ccccc12 [Tivantinib (ARQ 197)]
- estimated IC50 (SUDHL6 parental): 7.7 µM
- estimated IC50 [1]: 3.9 µM

SMILES: COc1cc2nccc(Oc3ccc(NC(=O)Nc4cc(C)on4)c(Cl)c3)c2cc1OC [Tivozanib (AV-951)]
- estimated IC50 (SUDHL6 parental): > 10 µM
- estimated IC50 [1]: 5.58 µM

SMILES: Nc1ccc(-c2ccc3ncc4ccc(=O)n(-c5cccc(C(F)(F)F)c5)c4c3c2)cn1 [Torin 2]
- estimated IC50 (SUDHL6 parental): 0.19 µM
- estimated IC50 [1]: 0.06 µM

SMILES: CC(C)n1nc(-c2cc3cc(O)ccc3[nH]2)c2c(N)ncnc21 [Torkinib (PP242)]
- estimated IC50 (SUDHL6 parental): 3.58 µM
- estimated IC50 [1]: 0.87 µM

SMILES: Cc1cc(Nc2cc(N3CCN(C)CC3)nc(Sc3ccc(NC(=O)C4CC4)cc3)n2)n[nH]1 [Tozasertib (VX-680, MK-0457)]
- estimated IC50 (SUDHL6 parental): 8.92 µM
- estimated IC50 [1]: 4.75 µM

SMILES: CCCc1cc(C)[nH]c(=O)c1CNC(=O)c1cc(-c2ccc(N3CCN(C(C)C)CC3)nc2)cc2c1cnn2C(C)C [UNC1999]
- estimated IC50 (SUDHL6 parental): 6.67 µM
- estimated IC50 [1]: 3.78 µM

SMILES: CN1CCN(Cc2ccc(-c3cnc4[nH]cc(-c5ccc6[nH]ccc6c5)c4c3)cc2)CC1 [URMC-099]
- estimated IC50 (SUDHL6 parental): 7.95 µM
- estimated IC50 [1]: 4.05 µM

SMILES: CC(C)(O)CNc1ncc(-c2ccnc(Nc3ccnc(Cl)c3)n2)c(CC2CC2)n1 [VPS34-IN1]
- estimated IC50 (SUDHL6 parental): 6.68 µM
- estimated IC50 [1]: 4.1 µM

SMILES: Fc1ccc(C(OCCN2CCN(CCCc3ccccc3)CC2)c2ccc(F)cc2)cc1 [Vanoxerine dihydrochloride]
- estimated IC50 (SUDHL6 parental): 7.4 µM
- estimated IC50 [1]: 2.1 µM

SMILES: CC[C@]1(O)C[C@@H]2CN(CCc3c([nH]c4ccccc34)[C@@](C(=O)OC)(c3cc4c(cc3OC)N(C)[C@H]3[C@@](O)(C(=O)OC)[C@H](OC(C)=O)[C@]5(CC)C=CCN6CC[C@]43[C@@H]65)C2)C1 [Vinblastine sulfate]
- estimated IC50 (SUDHL6 parental): 0.0075 µM
- estimated IC50 [1]: 0.0015 µM

SMILES: CC[C@]1(O)C[C@H]2CN(CCc3c([nH]c4ccccc34)[C@@](C(=O)OC)(c3cc4c(cc3OC)N(C=O)[C@H]3[C@@](O)(C(=O)OC)[C@H](OC(C)=O)[C@]5(CC)C=CCN6CC[C@]43[C@@H]65)C2)C1 [Vincristine sulfate]
- estimated IC50 (SUDHL6 parental): 0.008 µM
- estimated IC50 [1]: 0.002 µM

SMILES: CC[C@@H]1C(=O)N(C)c2cnc(Nc3ccc(C(=O)N[C@H]4CC[C@H](N5CCN(CC6CC6)CC5)CC4)cc3OC)nc2N1C(C)C [Volasertib (BI 6727)]
- estimated IC50 (SUDHL6 parental): 0.266 µM
- estimated IC50 [1]: 0.064 µM

SMILES: O=C(CCCCCCC(=O)Nc1ccccc1)NO [Vorinostat (SAHA, MK0683)]
- estimated IC50 (SUDHL6 parental): 3.74 µM
- estimated IC50 [1]: 2.15 µM

SMILES: c1cncc(CN2CCC(n3ncc4c(N5CCOCC5)nc(-c5ccc6[nH]ccc6c5)nc43)CC2)c1 [WAY-600]
- estimated IC50 (SUDHL6 parental): 8.3 µM
- estimated IC50 [1]: 2.2 µM

SMILES: NCCCNCCS [WR-1065 dihydrochloride]
- estimated IC50 (SUDHL6 parental): 2.81 µM
- estimated IC50 [1]: 1.47 µM

SMILES: COC(=O)Nc1ccc(-c2nc(N3CCOCC3)c3cnn(C4CCN(C(=O)OC)CC4)c3n2)cc1 [WYE-354]
- estimated IC50 (SUDHL6 parental): > 10 µM
- estimated IC50 [1]: 6.23 µM

SMILES: C=CC(=O)Nc1cccc(Oc2nc(Nc3ccc(N4CCN(C)CC4)cc3)ncc2Cl)c1 [WZ3146]
- estimated IC50 (SUDHL6 parental): > 10 µM
- estimated IC50 [1]: 4.09 µM

SMILES: C=CC(=O)Nc1cccc(Oc2nc(Nc3ccc(N4CCN(C)CC4)cc3OC)ncc2Cl)c1 [WZ4002]
- estimated IC50 (SUDHL6 parental): > 10 µM
- estimated IC50 [1]: 4.2 µM

SMILES: CCC(=O)Nc1cccc(Oc2nc(Nc3ccc(N4CCN(C)CC4)cc3OC)ncc2Cl)c1 [WZ4003]
- estimated IC50 (SUDHL6 parental): > 10 µM
- estimated IC50 [1]: 5.99 µM

SMILES: C=CC(=O)Nc1cccc(Sc2nc(Nc3ccc(N4CCN(C)CC4)cc3)ncc2Cl)c1 [WZ8040]
- estimated IC50 (SUDHL6 parental): 8.61 µM
- estimated IC50 [1]: 3.67 µM

SMILES: CN1C(=O)c2sccc2N(C)c2nc(Nc3ccc(S(N)(=O)=O)cc3)ncc21 [XMU-MP-1]
- estimated IC50 (SUDHL6 parental): 2.51 µM
- estimated IC50 [1]: 1.51 µM

SMILES: OCCNCc1ccc(OCc2ccc(F)cc2)c(OCc2ccc(F)cc2)c1 [XRK3F2]
- estimated IC50 (SUDHL6 parental): > 10 µM
- estimated IC50 [1]: 5.63 µM

SMILES: COc1cc(O)c(CC=C(C)C)c(O)c1C(=O)/C=C/c1ccc(O)cc1 [Xanthohumol]
- estimated IC50 (SUDHL6 parental): 4.27 µM
- estimated IC50 [1]: 2.49 µM

SMILES: COCC[n+]1c2c(n(Cc3cnccn3)c1C)C(=O)c1ccccc1C2=O [YM155 (Sepantronium Bromide)]
- estimated IC50 (SUDHL6 parental): 0.008 µM
- estimated IC50 [1]: 0.003 µM

SMILES: FC(F)c1nc2ccccc2n1-c1nc(N2CCOCC2)nc(N2CCOCC2)n1 [ZSTK474]
- estimated IC50 (SUDHL6 parental): > 10 µM
- estimated IC50 [1]: 4.79 µM

SMILES: C[C@H](Nc1ncnc2[nH]cnc12)c1nc2ccc(F)cc2c(=O)n1-c1ccccc1 [acalisib (GS-9820)]
- estimated IC50 (SUDHL6 parental): > 10 µM
- estimated IC50 [1]: 0.266 µM

SMILES: COc1ccc(C(=O)N2c3ccccc3Sc3ccc(Cl)cc32)cc1 [iHAP1]
- estimated IC50 (SUDHL6 parental): 7.31 µM
- estimated IC50 [1]: 4.87 µM
